# This is one part of the list.
# T1: UNK ZnF1-3 (human, UniProt Q9C0B0 31-174)
# T1 sequence: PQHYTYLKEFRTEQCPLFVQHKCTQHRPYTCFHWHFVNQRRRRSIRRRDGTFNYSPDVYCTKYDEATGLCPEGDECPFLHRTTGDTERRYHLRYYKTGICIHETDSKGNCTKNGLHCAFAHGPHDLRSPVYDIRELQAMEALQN
# B1: 75988097_75988217_191_5pUTR_ENSG00000170027_ENST00000307630|human|control|control (ssRNA)
# RNA: GGGAGUUCUACAGUCCGACGAUCUCUGCACCAGUUGCUCGCGGUCCACCAUCUUCGCGGGGCUGGGUCUGGCCGGAGAAGGAGGAGGACACUGGGGCGGCCUGAAGGGCUUGGAGGGCGCGACUGGAGCCCAAGUGCCGGAGACAACAGAGGAUUGAGCAUCA
# B2: 130672718_130673873_774_CDS_ENSG00000017260_ENST00000359644|human|control|control (ssRNA)
# RNA: GGGAGUUCUACAGUCCGACGAUCUGUUCCAAUGACAACACCCUUUGCUUUGCCACAUCUGACCAGUGUUCCCAUAAAGGCAAUGUUACUUCUCGAUGCAAGAUCUCCAUUAGUUGCAGCUGGCUGAGGAGCUGUCACCUUAGACAACAGAGGAUUGAGCAUCA
# B3: chr19:36966019:36966020:+_ENSMUSG00000024811_ENSMUST00000025729|mus_hu|FALSE|FALSE (ssRNA)
# RNA: GGGAGUUCUACAGUCCGACGAUCCAUGAAAGCUAGAAAUUGAGGCCAGUAAAGAAGCUUCUUUAGUAAUCAGGACCUAUCAUAGUUAGAGCUCUUUGGAAUGUGUCUCAUACAUACAAAGGUAUCACAAAUUAAAUCUUCAGCCAACAGAGGAUUGAGCAUCA
# B4: 159564474_159570165_898_3pUTR_ENSMUSG00000028173_ENSMUST00000068952|mouse|control|control (ssRNA)
# RNA: GGGAGUUCUACAGUCCGACGAUCCCACACCAUAAUGAUGAAGAUGCUGGGUGUAAGGAAGGUCUUCAUAGCAAACCAUACCUUAGUGAAACCUCCGUUUUGGUGGAUUCCCACCAACCGAAUGUCCUUUAUCUCCCCAAUUCCCAACAGAGGAUUGAGCAUCA
# B5: chr5:156566098:156566099:-_ENSG00000155868_ENST00000420343|hu_mus|motif|central (ssRNA)
# RNA: GGGAGUUCUACAGUCCGACGAUCGGGUCGAUAUUCAUUUAUAAGAUGAUGUACAUGUACAAAAAGUAGCUUAAGAUCUUCGGGCUUUUCUUCUCGUUUUAUACUCCCAGGACUUCUUAUUAAGAUGUCUAAAAGGUCUAAGAACAACAGAGGAUUGAGCAUCA
# B6: chr2:32526493:32526494:+_ENSG00000119820_ENST00000437765|hu_mus|motif|central (ssRNA)
# RNA: GGGAGUUCUACAGUCCGACGAUCAGAUCCAACCACCAAAAGUAUAGGGGCUAUUACAAUGAGAGGAAGUAAUGAAUAUCCGGUAACUCCAAGAACUUGGCCAUAUGCAACUUCUCCACCAAGAACUCUAGCCAGUAAGAAAAUCAACAGAGGAUUGAGCAUCA
# B7: chr13:55314840:55314841:+_ENSMUSG00000021488_ENSMUST00000099490|mus_hu|FALSE|FALSE (ssRNA)
# RNA: GGGAGUUCUACAGUCCGACGAUCAUCACUUUUUUCAGGGUCUUGAAAGGAUUCUGAUCCAUCAGCAGACCCAUUUAAAUACUCUACAUUGAUCAUGGAGGCCAAAUCCUGUAGUCUCCGCAGUGGAAUGUAACAAGAUGGAGACAACAGAGGAUUGAGCAUCA
# B8: chr12:88041583:88041584:-_ENSMUSG00000021257_ENSMUST00000021682|mus_mus|motif|central (ssRNA)
# RNA: GGGAGUUCUACAGUCCGACGAUCUUCUGCCGGCUCCAGGGUGCAGUUUAAGUGCCAUUUAAACCCCCACACUUCAUUUCGGAAACAGAAACAAGGAGAAACAAGGAAAAGAUAAACCACCAAGCUCUGACCCUCUGCCUCCUUCAACAGAGGAUUGAGCAUCA
# B9: chr1:171751117:171751118:+_ENSG00000010165_ENST00000361735|hu_hu|motif|central (ssRNA)
# RNA: GGGAGUUCUACAGUCCGACGAUCCUUUUAGGUAAGAGGUUCAUGUUCCUACUGCCGAAGCUGCGUUUUCAAGACUCCCCGGUUCCCUGUGAGAUACCAUUUGAGGAGCUUGCCCACCACACGCAGGCUCCGGGACACUGCAGUCAACAGAGGAUUGAGCAUCA
# B10: chr5:132270174:132270175:-_ENSG00000072364_ENST00000265343|hu_hu|motif|central (ssRNA)
# RNA: GGGAGUUCUACAGUCCGACGAUCAGAAUCCCAGUUUGCAUCAGGGUCCCGAGGUGAUUUGGAGCGUUGAUGUUCCUUGCGGUGGUGAUCAUUCCCAUGAGACCUGGAAUGACUAGAGUUUAAUGAAGAAACAGCCUGGGGUUUCAACAGAGGAUUGAGCAUCA
# B11: chrX:130830059:130830060:+_ENSMUSG00000033578_ENSMUST00000037687|mus_mus|motif|central (ssRNA)
# RNA: GGGAGUUCUACAGUCCGACGAUCGGGCCAUGAUAGUUAUGGUUCGUGGGGAUGCCAUGGGGUCACCAAGGCAGGUCCCAACGGAUCCCUCUGCUUUGCGCAGCCCGGCUGUCAAGGCGCAGGCAGUUAGCACAGGGAGAGCUACAACAGAGGAUUGAGCAUCA
# B12: chr20:54972846:54972847:+_ENSG00000101138_ENST00000217109|hu_hu|FALSE|FALSE (ssRNA)
# RNA: GGGAGUUCUACAGUCCGACGAUCAGCUUCCUGAAUGUAUUUGAAGGCUCUUUUUGCUGAUGGUUUGGAAUAAUCAAAUAAUUUAAGAGUAUAAUCCCUUGAACCAGAAGCCAGGAUCUGUUCUGUUGGGUGGAAAGCAAGGCACAACAGAGGAUUGAGCAUCA
# B13: 228337185_228356263_158_CDS_ENSG00000173744_ENST00000409171|human|control|control (ssRNA)
# RNA: GGGAGUUCUACAGUCCGACGAUCCAGGCUGCCGGAGCAGGAGGUACACACGAAGGAGCCGACCGUCAUGUUAACGUAGGUGGGGCCGCGCUGGUCGCAGUCGAAGCACUUUCGGUUGUGCGGGAGGCCGGUCAUGUCCCGCAGCAACAGAGGAUUGAGCAUCA
# B14: chr4:108954403:108954404:+_ENSG00000138796_ENST00000309522|hu_mus|FALSE|FALSE (ssRNA)
# RNA: GGGAGUUCUACAGUCCGACGAUCAGUAUCCAGUCCAACAUAGUCAAGAAGCUCAAACGGACCCAUGGGAUACCCAGCUCCCAGCUUCAUCGCUGUAUCGAUGUCUUCCUUAGACGCAUCGCCUCGCUCGUGUAGCCUGACGGCCAACAGAGGAUUGAGCAUCA
# Biological target: T1, UNK ZnF1-3
# Assay: nsRBNS (natural sequence RNA bind-n-seq); RBNS binding buffer (assumed for nsRBNS): 25 mM Tris pH 7.5, 150 mM KCl, 3 mM MgCl2, 0.01% Triton X-100, 500 ug/ml BSA, 20 U/ml SUPERase-In, 4 C; UNK is unkempt and MSI1 is Musashi-1; names of the RNAs are library labels; protein concentration not given here; high values mean tight binding
row,Binder,binding signal [enrichment R]
1,B1,1.24
2,B2,0.581
3,B3,1.41
4,B4,0.993
5,B5,0.623
6,B6,1.9
7,B7,0.653
8,B8,1.74
9,B9,0.55
10,B10,1.05
11,B11,0.818
12,B12,1.91
13,B13,0.986
14,B14,1.01

# Reference: publication PMC12136788
